This is one part of the list. Most values come without repeats; read them as rough.
Key:
Test in all cases: cell count relative to DMSO control; melanoma cells; higher = more viable cells
Details in all cases: library dose: standard library concentration; 72 h
501Mel = system: 501Mel
A101D = system: A101D
A2058 = system: A2058
A375 = system: A375
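Further: cells treated in 1,536-well plates, then fixed and DAPI-stained, with nuclei counted from automated high-throughput microscope images.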

| Compound | cell count (501Mel) | cell count (A101D) | cell count (A2058) | cell count (A375) |
| --- | --- | --- | --- | --- |
| C[As](C)SC[C@H](NC(=O)CC[C@H](N)C(=O)O)C(=O)NCC(=O)O [Darinaparsin] + O=S(=O)(c1ccccc1)N(CC(F)(F)F)c1ccc(C(O)(C(F)(F)F)C(F)(F)F)cc1 [T0901317] (first compound 2 µM, partner dose 7 µM) | 68.2% | 88.9% | 74.2% | 88.3% |
| N.N.[Cl][Pt][Cl] [cisplatin] + O=c1cc(-c2cccc3c2Sc2ccccc2S3)oc(N2CCOCC2)c1 [KU55933] (first compound 8 µM, partner dose 5 µM) | 112% | 62.5% | 87% | 125% |
| C[As](C)SC[C@H](NC(=O)CC[C@H](N)C(=O)O)C(=O)NCC(=O)O [Darinaparsin] + COc1cc2ncnc(Nc3ccc(Oc4ccccc4)cc3)c2cc1OC [SrcI1] (first compound 2 µM, partner dose 10 µM) | 84.4% | 58.3% | 78.3% | 137% |
| N.N.[Cl][Pt][Cl] [cisplatin] + CC(C)CCN1c2nc(Nc3cc(F)c(O)c(F)c3)ncc2N(C)C(=O)C1C [BID1870] (first compound 8 µM, partner dose 1 µM) | 82.5% | 57.4% | 103% | 110% |
| C[C@]12O[C@H](C[C@]1(O)CO)n1c3ccccc3c3c4c(c5c6ccccc6n2c5c31)CNC4=O [Lestaurtinib] + O=C(Nc1ccccc1)c1cc([N+](=O)[O-])ccc1Cl [GW9662] (first compound 0.02 µM, partner dose 10 µM) | 65.7% | 60.1% | 94.8% | 118% |
